Experimental data taken from PubChem BioAssay AID602332 (National Center for Advancing Translational Sciences (NCATS), 2012).
Hit rate of the full screen: of about 420,000 compounds, about 75 (0.02%) were called active. This list was built around the results that the source calls inconclusive (neither active nor inactive); the mix of calls is not that of the screen. Calls come from the whole dose curve; as a rule, active = well fitted activation curve with a large enough effect; inconclusive = small, poorly fitted or top-dose-only effect; inactive = no such curve, though single readings can be large or run the other way. Where the call is inconclusive, the potency comes from a doubtful curve fit.

Assay: qHTS for Inducers of the Endoplasmic Reticulum Stress Response (ERSR) in Human Glioma: qHTS; note: nearly all actives have a fitted effect of over 35% in size; for activation: % of control where 0% means no effect
Conditions: U87-MG GRP78 promoter luciferase reporter, 16 h; activation: stronger effect = higher value
Source text: Primary protein unfolding takes place for many diseases, including diabetes and hypoxia, , and triggers a reaction in the cells called ER stress response (ERSR). ). ERSR is designed as a repair mechanism, but ultimately leads to cell death via apoptosis if conditions triggering protein unfolding persist (1). The molecular clue to ERSR activation is the enhancement of the expression of key molecular chaperones, including the glucose regulated protein (GRP) 78. GRP78 is the main sensor for protein folding and the main actuator of the ERSR.
In a collaboration between the Southern Research Institute and the NIH Chemical Genomics Center, a cell based screen was developed that reliably uses GRP78 as a sensor to identify small molecules as inducers of ERSR. In resting conditions, GRP78 binds proteins and acts as a natural repressor. Once unfolded proteins are present in the ER, GRP78 releases some of the repressors and binds to the unfolded proteins. The release of the repressors executes the ERSR program. Using a human glioma cell line in a miniaturized, luminescent format, a high-throughput screen was developed to identify actuators of the ERSR.
(1) Soboloff, J. and S. A. Berger (2002). "Sustained ER Ca2+ depletion suppresses protein synthesis and induces activation-enhanced cell death in mast cells." J Biol Chem 277(16): 13812-20.
NIH Chemical Genomics Center [NCGC]
NIH Molecular Libraries Probe Centers Network [MLPCN]
Assay Submitter (PI): Maurizio Grimaldi, Southern Research Institute
Stable transfected human glioma cell line, U87-MG, are dispensed at density 1000 cells/well into Greiner white solid bottom 1536-well assay plates. Compounds are transferred via Kalypsys pin tool equipped with 1536-pin array (10nl slotted pins, V&P Scientific, San Diego, CA). The assay plates will be incubated for 16 hours and developed by adding appropriate quantities of the Promega Bright Glo reagent. The plates will be incubated at room temperature for 10 minutes prior to being transferred into a ViewLux high-throughput CCD imager (PerkinElmer), wherein end-point measurements of luminescence are acquired.
Potency is the fitted concentration of half-maximal effect; tags give direction and shape of the fitted curve.

Structure (SMILES) | activation | Potency
O=C(Cc1ccc(Br)cc1)N1CCN(c2ccccc2O)CC1 | inactive: 4.67% | 
COc1ccc(C(=O)c2sc(Nc3ccccc3F)nc2N)cc1 |  | inconclusive: 12.6 µM [activator, partial curve, poor fit]
Cc1cccc(NC(=O)C(=O)NNC(=O)c2ccc(C(C)(C)C)cc2)c1 |  | inconclusive: 39.8 µM [activator, partial curve, poor fit]
COc1ccc(C(=O)O/N=C(\N)c2ccncc2)cc1OC |  | inconclusive: 28.2 µM [activator, partial curve, poor fit]
CCCCCCSC1=C(C#N)C(=O)NC2(CCCCC2)S1 |  | inconclusive: 50.1 µM [activator, partial curve, poor fit]
CN(C(=S)NC(=O)c1ccc(Cl)cc1)C1CCCCC1 |  | inconclusive: 10 µM [activator, single point]
O=c1oc2ccccc2c2oc3cc(O)c(O)cc3c12 |  | inconclusive: 7.94 µM [activator, full curve, poor fit]
COc1ccc(OC(=O)c2cccc([N+](=O)[O-])c2)c(C(=O)/C=C/c2cccs2)c1 |  | inconclusive: 39.8 µM [activator, partial curve, poor fit]
CC[n+]1c(/C=C(\C)SC)sc2ccccc21 |  | inconclusive: 17.8 µM [activator, single point]
COc1ccc2nc(N3CCC(O)CC3)c(C#N)cc2c1 |  | inconclusive: 31.6 µM [activator, partial curve, poor fit]
O=C(CSc1ncn[nH]1)N1c2ccccc2Sc2ccccc21 | inactive: -2.49% | 
NS(=O)(=O)c1ccc(CCNC(=O)NC2(C(F)(F)F)Oc3ccccc3O2)cc1 |  | inconclusive: 12.6 µM [activator, full curve, poor fit]
COc1ccc(C2=CC(=O)C[C@H](c3ccc(F)cc3)C2)c(F)c1F | inactive: -6.05% | 
CCC(C(=O)OCC(=O)Nc1c(C)nn(-c2ccccc2)c1C)c1ccccc1 (stereo unspecified) |  | inconclusive: 25.1 µM [activator, single point]
Cn1c(=O)n(C)c2cc(NC(=O)CCl)ccc21 |  | inconclusive: 14.1 µM [activator, single point]
C#CCN1C(=O)S/C(=C\c2ccc(-c3ccc(C(=O)O)cc3C)o2)C1=O |  | inconclusive: 12.6 µM [activator, full curve, poor fit]
CC(=O)Nc1cc(-c2ccc(N)nc2)cn2c(-c3cccc(C(F)(F)F)c3)cnc12 |  | inconclusive: 50.1 µM [activator, single point]
N#C/C(Cn1c[n+](NC(=O)Nc2ccccc2)cn1)=N/O |  | inconclusive: 28.2 µM [activator, single point]
COc1ccc(NC(=O)Nc2ccc3c(c2)OCO3)c(C)c1 |  | inconclusive: 10 µM [activator, full curve]
COC(=O)CSc1nnc2n(-c3ccc(OC)cc3)c(=O)c3c4c(sc3n12)CCCCC4 |  | inconclusive: 31.6 µM [activator, partial curve, poor fit]
Oc1ccc(-c2nc(-c3ccc(O)c(O)c3)cs2)cc1 |  | inconclusive: 7.08 µM [activator, partial curve, poor fit]

Structure (SMILES) | activation | Potency
CC12CCC=CC1C(c1cccc(Br)c1)N(Cc1ccccc1)C2=O (stereo unspecified) |  | inconclusive: 28.2 µM [activator, single point]
CCn1c(CC(=O)Nc2ccccc2)nnc1SCC(=O)NC1CCCC1 | inactive: -0.911% | 
COc1cccc(OCc2cc(C(=O)N(C)CCOc3ccc(C)cc3)no2)c1 |  | inconclusive: 2 µM [activator, partial curve, poor fit]
CC(/C=C/c1ccco1)=N/NC(=O)Cc1cccs1 |  | inconclusive: 50.1 µM [activator, single point]
CC(=O)c1ccc(N2CCN(c3ccc(C(F)(F)F)cn3)CC2)cc1 | inactive: -2.3% | 
CCOc1ccccc1NS(=O)(=O)c1ccc2oc(=O)c3ncn(C)c3c2c1 |  | inconclusive: 22.4 µM [activator, single point]
Clc1nnc(N/N=C/c2ccccc2)c2ccccc12 |  | inconclusive: 3.16 µM [activator, partial curve, poor fit]
CCOC(=O)c1cnc2ccccc2c1NCc1ccco1 | inactive: -0.901% | 
CC(=O)Nc1cc(C(=O)NCc2ccc(F)cc2)ccc1Sc1ccc(C)cc1 | inactive: -2.42% | 
O=C(CSc1cccc[n+]1[O-])c1cc2ccccc2o1 |  | inconclusive: 35.5 µM [activator, partial curve]
Cc1ccc(Cc2c(-c3ccco3)nc3ccc(Br)cn23)cc1 |  | inconclusive: 50.1 µM [activator, single point]
O=C(NCc1cccnc1)NC1(C(F)(F)F)Oc2ccc(Cl)cc2O1 (stereo unspecified) |  | inconclusive: 2.24 µM [activator, full curve, poor fit]
O=C(O)CCCC(=O)N1CCN(c2cccc(Cl)c2)CC1 |  | inconclusive: 50.1 µM [activator, single point]
OCC#Cc1ncc(C(F)(F)F)cc1Cl |  | inconclusive: 44.7 µM [activator, partial curve, poor fit]
C=CC[C@H](CC(=O)N(CCO)Cc1ccccc1)C(=O)NC[C@H](OC(=O)[C@@H](CC=C)CC(=O)OC(C)(C)C)c1ccccc1 | inactive: -2.23% | 
Cc1ccc(Nc2nc(N3CCOCC3)nc(N3CCOCC3)n2)cc1 | inactive: -1.58% | 
COc1ccc(-c2cc(C(=O)Nc3ccccc3O)c3ccccc3n2)cc1 |  | inconclusive: 10 µM [activator, single point]
Cc1nn(C)c(C)c1S(=O)(=O)N(CC(=O)Nc1nccs1)c1ccc(C(C)C)cc1 |  | inconclusive: 28.2 µM [activator, single point]
Cc1cc(C)cc(-n2ccnc2SCC(=O)Nc2ccc3c(c2)OCO3)c1 | inactive: -1.83% | 
CC1=Nc2cccc3cccc(c23)N1 |  | inconclusive: 50.1 µM [activator, single point]
